Among the data in article PMC9911399, “Two distinct binding modes provide the RNA-binding protein RbFox with extraordinary sequence specificity” are binding signal values, retold here.

Changes are numbered by the printed parent chain; changes in the protein carry UniProt numbers. The list shows a part of the results.

The labels stand for the following.
T1: RBFOX1 RRM RbFoxmut (Fox-RRM*) (Homo sapiens, UniProt Q9NWB1 109-208, R118D;E147R;N151S;E152T)
T1 sequence: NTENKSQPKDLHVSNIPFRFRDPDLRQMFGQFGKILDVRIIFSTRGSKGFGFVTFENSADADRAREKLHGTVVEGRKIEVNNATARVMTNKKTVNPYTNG

B1: CAUGUAG (DNA:RNA)
RNA: GGGAGACCGGAAUUCAGAUUGUCCCAUGUAGUUAAAUCCCGUCGUAGCCACCA
DNA 1: CAATCTGAATTCCGGTCTCCC
DNA 2: TGGTGGCTACGACGGGATT
B2: AGAUGGU (DNA:RNA)
RNA: GGGAGACCGGAAUUCAGAUUGUCCAGAUGGUUUAAAUCCCGUCGUAGCCACCA
DNA 1: CAATCTGAATTCCGGTCTCCC
DNA 2: TGGTGGCTACGACGGGATT
B3: UUAAUUA (DNA:RNA)
RNA: B2 RNA with A25U, G26U, U28A, G29U, G30U, U31A
DNA 1: CAATCTGAATTCCGGTCTCCC
DNA 2: TGGTGGCTACGACGGGATT
B4: UGACUUA (DNA:RNA)
RNA: B2 RNA with A25U, U28C, G29U, G30U, U31A
DNA 1: CAATCTGAATTCCGGTCTCCC
DNA 2: TGGTGGCTACGACGGGATT
B5: AUAGGAA (DNA:RNA)
RNA: B2 RNA with G26U, U28G, G30A, U31A
DNA 1: CAATCTGAATTCCGGTCTCCC
DNA 2: TGGTGGCTACGACGGGATT
B6: AACCAGA (DNA:RNA)
RNA: B2 RNA with G26A, A27C, U28C, G29A, U31A
DNA 1: CAATCTGAATTCCGGTCTCCC
DNA 2: TGGTGGCTACGACGGGATT
B7: AGUGUUG (DNA:RNA)
RNA: B1 RNA with C25A, A26G, A30U
DNA 1: CAATCTGAATTCCGGTCTCCC
DNA 2: TGGTGGCTACGACGGGATT
B8: GAUUAUA (DNA:RNA)
RNA: B1 RNA with C25G, G28U, U29A, A30U, G31A
DNA 1: CAATCTGAATTCCGGTCTCCC
DNA 2: TGGTGGCTACGACGGGATT
B9: UCAGUUG (DNA:RNA)
RNA: B1 RNA with C25U, A26C, U27A, A30U
DNA 1: CAATCTGAATTCCGGTCTCCC
DNA 2: TGGTGGCTACGACGGGATT
B10: CCUUUUA (DNA:RNA)
RNA: B1 RNA with A26C, G28U, A30U, G31A
DNA 1: CAATCTGAATTCCGGTCTCCC
DNA 2: TGGTGGCTACGACGGGATT
B11: AGCCCAG (DNA:RNA)
RNA: B2 RNA with A27C, U28C, G29C, G30A, U31G
DNA 1: CAATCTGAATTCCGGTCTCCC
DNA 2: TGGTGGCTACGACGGGATT
B12: UGGGAAU (DNA:RNA)
RNA: B2 RNA with A25U, A27G, U28G, G29A, G30A
DNA 1: CAATCTGAATTCCGGTCTCCC
DNA 2: TGGTGGCTACGACGGGATT
B13: ACCAAGU (DNA:RNA)
RNA: B2 RNA with G26C, A27C, U28A, G29A
DNA 1: CAATCTGAATTCCGGTCTCCC
DNA 2: TGGTGGCTACGACGGGATT
B14: AUAUCCA (DNA:RNA)
RNA: B2 RNA with G26U, G29C, G30C, U31A
DNA 1: CAATCTGAATTCCGGTCTCCC
DNA 2: TGGTGGCTACGACGGGATT
B15: ACACACA (DNA:RNA)
RNA: B2 RNA with G26C, U28C, G29A, G30C, U31A
DNA 1: CAATCTGAATTCCGGTCTCCC
DNA 2: TGGTGGCTACGACGGGATT
B16: GGUUUAA (DNA:RNA)
RNA: B1 RNA with C25G, A26G, G28U, G31A
DNA 1: CAATCTGAATTCCGGTCTCCC
DNA 2: TGGTGGCTACGACGGGATT
B17: UCAACCA (DNA:RNA)
RNA: B2 RNA with A25U, G26C, U28A, G29C, G30C, U31A
DNA 1: CAATCTGAATTCCGGTCTCCC
DNA 2: TGGTGGCTACGACGGGATT
B18: GAUGUCG (DNA:RNA)
RNA: B1 RNA with C25G, A30C
DNA 1: CAATCTGAATTCCGGTCTCCC
DNA 2: TGGTGGCTACGACGGGATT
B19: AUUUUUC (DNA:RNA)
RNA: B2 RNA with G26U, A27U, G29U, G30U, U31C
DNA 1: CAATCTGAATTCCGGTCTCCC
DNA 2: TGGTGGCTACGACGGGATT
B20: CGUAGAG (DNA:RNA)
RNA: B1 RNA with A26G, G28A, U29G
DNA 1: CAATCTGAATTCCGGTCTCCC
DNA 2: TGGTGGCTACGACGGGATT
B21: GGAACCC (DNA:RNA)
RNA: B2 RNA with A25G, U28A, G29C, G30C, U31C
DNA 1: CAATCTGAATTCCGGTCTCCC
DNA 2: TGGTGGCTACGACGGGATT
B22: CUAAAUC (DNA:RNA)
RNA: B2 RNA with A25C, G26U, U28A, G29A, G30U, U31C
DNA 1: CAATCTGAATTCCGGTCTCCC
DNA 2: TGGTGGCTACGACGGGATT
B23: UUAGAAA (DNA:RNA)
RNA: B1 RNA with C25U, A26U, U27A, U29A, G31A
DNA 1: CAATCTGAATTCCGGTCTCCC
DNA 2: TGGTGGCTACGACGGGATT
B24: GACCUCC (DNA:RNA)
RNA: B1 RNA with C25G, U27C, G28C, A30C, G31C
DNA 1: CAATCTGAATTCCGGTCTCCC
DNA 2: TGGTGGCTACGACGGGATT
B25: GAGAGAA (DNA:RNA)
RNA: B1 RNA with C25G, U27G, G28A, U29G, G31A
DNA 1: CAATCTGAATTCCGGTCTCCC
DNA 2: TGGTGGCTACGACGGGATT
B26: AGCCUCU (DNA:RNA)
RNA: B2 RNA with A27C, U28C, G29U, G30C
DNA 1: CAATCTGAATTCCGGTCTCCC
DNA 2: TGGTGGCTACGACGGGATT
B27: GGGUCGA (DNA:RNA)
RNA: B2 RNA with A25G, A27G, G29C, U31A
DNA 1: CAATCTGAATTCCGGTCTCCC
DNA 2: TGGTGGCTACGACGGGATT
B28: CCACUCU (DNA:RNA)
RNA: B2 RNA with A25C, G26C, U28C, G29U, G30C
DNA 1: CAATCTGAATTCCGGTCTCCC
DNA 2: TGGTGGCTACGACGGGATT
B29: GGUGAGG (DNA:RNA)
RNA: B1 RNA with C25G, A26G, U29A, A30G
DNA 1: CAATCTGAATTCCGGTCTCCC
DNA 2: TGGTGGCTACGACGGGATT
B30: CCGUGGG (DNA:RNA)
RNA: B2 RNA with A25C, G26C, A27G, U31G
DNA 1: CAATCTGAATTCCGGTCTCCC
DNA 2: TGGTGGCTACGACGGGATT
B31: GGGGCGU (DNA:RNA)
RNA: B2 RNA with A25G, A27G, U28G, G29C
DNA 1: CAATCTGAATTCCGGTCTCCC
DNA 2: TGGTGGCTACGACGGGATT

The target of this assay is T1, RBFOX1 RRM RbFoxmut (Fox-RRM*). Nature of the assay: EMSA; HiTS-Eq, 1 nM pool, 10 min; buffer printed only for the single-RNA assays: 10 mM Tris pH 7.5, 150 mM NaCl, 3.4 mM EDTA, 0.001% NP-40, 30 C. Conditions: tags: His6 N-terminal (pET28a); label: 5' 32P. The gist of the method: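 These values rest on relative association constants, computed from read-count changes of each RNA species versus the control reaction and normalised to the cognate motif. Reads came from free RNA recovered by 8% native PAGE after purified RbFox RRM (wild type or mutant) at increasing concentrations was equilibrated for 10 min in 50 µL with 1 nM of a 5′-radiolabelled pool with 7 randomized nucleotides and DNA-annealed flanks.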
(A gel shift assay detects complexes by their altered migration in electrophoresis.)
As to B1, the binding signal is 0.161 KA relative to UGCAUGU.

As to B2, the binding signal was 0.117 KA relative to UGCAUGU.

As for B3, the binding signal was 0.102 KA relative to UGCAUGU.

Consider B4, for which the binding signal was 0.108 KA relative to UGCAUGU.

Turning to B5, the binding signal was 0.0888 KA relative to UGCAUGU.

As to B6, the binding signal is 0.107 KA relative to UGCAUGU.

For the molecule B7, the binding signal is 0.186 KA relative to UGCAUGU.

With B8, the binding signal is 0.0871 KA relative to UGCAUGU.

B9: the binding signal was 0.119 KA relative to UGCAUGU.

For B10, the binding signal was 0.0871 KA relative to UGCAUGU.

Consider B11, for which the binding signal was 0.123 KA relative to UGCAUGU.

In the case of B12, the binding signal was 0.138 KA relative to UGCAUGU.

Regarding B13, the binding signal was 0.0821 KA relative to UGCAUGU.

Take B14: the binding signal was 0.115 KA relative to UGCAUGU.

For B15, the binding signal was 0.101 KA relative to UGCAUGU.

As to B16, the binding signal was 0.0823 KA relative to UGCAUGU.

In the case of B17, the binding signal is 0.0628 KA relative to UGCAUGU.

For B18, the binding signal is 0.145 KA relative to UGCAUGU.

For B19, the binding signal was 0.0727 KA relative to UGCAUGU.

In the case of B20, the binding signal was 0.156 KA relative to UGCAUGU.

For the molecule B21, the binding signal is 0.103 KA relative to UGCAUGU.

For B22, the binding signal was 0.0354 KA relative to UGCAUGU.

On to B23, for which the binding signal was 0.0704 KA relative to UGCAUGU.

Turning to B24, the binding signal was 0.0427 KA relative to UGCAUGU.

For the molecule B25, the binding signal is 0.0849 KA relative to UGCAUGU.

B26: the binding signal is 0.0693 KA relative to UGCAUGU.

On to B27, for which the binding signal is 0.21 KA relative to UGCAUGU.

For B28, the binding signal was 0.0917 KA relative to UGCAUGU.

With B29, the binding signal was 0.0722 KA relative to UGCAUGU.

Take B30: the binding signal is 0.084 KA relative to UGCAUGU.

As to B31, the binding signal was 0.167 KA relative to UGCAUGU.
